According to PubChem BioAssay AID1508642 (National Center for Advancing Translational Sciences (NCATS), 2021):
The campaign covered roughly 43,000 compounds. About 200 (0.47%) were called active. Inconclusive results (about 12%) are left out. Calls come from the whole dose curve; as a rule, active = well fitted cell-killing curve with a large enough effect; inconclusive = small, poorly fitted or top-dose-only effect, or effect the other way; inactive = flat fitted curve, though single readings scatter. The list shows a part of the results.

Assay: Cell viability qHTS assay in S16 Pmp22-F2sN cells; note: nearly all actives have a fitted effect of over 65% in size
Settings: S16 Pmp22-F2sN Schwann cells viability, CellTiter-Glo, 24 h; series mostly up to 57.5 µM; activity change, negative = cytotoxicity: at the top concentration
Outline: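 S16 Pmp22-F2sN Schwann cells (500-1,000/well) in phenol-red-free DMEM with 10% FBS received 23 nL compound by pin tool for 24 h at 37 °C. Viability was then read as CellTiter-Glo luminescence after 15 min at room temperature.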
% is set by controls: 0 for no effect and ±100 for the full control effect; potency is the fitted concentration of half-maximal effect.

Row | SMILES | activity change, negative = cytotoxicity | Potency
1 | CCOc1ccc(NC(=O)CCn2c(-c3ccc(F)cc3)cc(C(C)=O)c2C)cc1 | inactive: -14.6% | 
2 | Cc1ccc(C2C=C(c3ccc(Cl)cc3)Nc3nc(NC(=O)CCC(=O)O)nn32)cc1 (configuration not stated) | inactive: 6.77% | 
3 | COc1ccc(NC(=O)Nc2nnc(SCC(=O)Nc3cccc(C)c3C)s2)cc1 | inactive: 1.4% | 
4 | CCn1cnc2c(=O)oc3ccc(S(=O)(=O)N4CCN(c5cc(C)ccc5C)CC4)cc3c21 | inactive: 1.46% | 
5 | CCC(C)Cn1c(COc2ccc(OC)cc2)nc2ccccc21 (configuration not stated) | inactive: 4.42% | 
6 | O=C(CSc1nnc(-c2ccccc2)c(-c2ccccc2)n1)Nc1ccccc1Cl | inactive: -11.9% | 
7 | CCCOc1ccc(C(=O)Nc2cc3nn(-c4ccc(CC)cc4)nc3cc2C)cc1 | inactive: 7.8% | 
8 | COc1ccccc1OCCCn1c(-c2ccc(Cl)cc2)nc2ccccc2c1=O | inactive: -6.08% | 
9 | CCOC(=O)c1ccc(NC(=O)Nc2cccc(OCc3cc(=O)n4ccc(C)cc4n3)c2)cc1 | inactive: 18.4% | 
10 | COc1ccc(NC(=O)CCc2nc3cccnc3n2Cc2cccs2)c(OC)c1 | inactive: 7.06% | 
11 | O=C(NCCn1cc(SCc2ccc(C(F)(F)F)cc2)c2ccccc21)c1ccccc1F | inactive: 2.91% | 
12 | Cc1ccc(CN2C(=O)SC(Nc3ccccc3)C2=O)cc1 (configuration not stated) | inactive: 3.6% | 
13 | O=C(NCc1ccc(F)cc1)c1ccc2c(c1)N(Cc1ccc(F)cc1Cl)C(=O)CS2 | inactive: 17.1% | 
14 | CCCSc1ncc(Cl)c(C(=O)Nc2ccc(OC)cc2OC)n1 | inactive: 1.12% | 
15 | Cc1ccccc1C(=O)NCC(c1ccc(N(C)C)cc1)N1CCCC1 (configuration not stated) | inactive: 7.03% | 
16 | COc1ccc(S(=O)(=O)N(Cc2nc(-c3ccccc3)no2)C2CCCCC2)cc1 | inactive: -6.29% | 
17 | COc1cc(C2CC(=O)N(c3ccc(C)c(Cl)c3)C3=C2C(=O)OC3)cc(OC)c1OC (configuration not stated) | inactive: 4.93% | 
18 | O=C(CCS(=O)(=O)c1ccc(Br)s1)Nc1c(F)cccc1F | inactive: 3.98% | 
19 | Cc1cccc(-c2noc(-c3cccnc3NCc3ccccc3Cl)n2)c1 | inactive: 11.5% | 
20 | CNC(=O)C1CCC(Cn2c(=O)c3sccc3n(CC(=O)N3CCCCC3C)c2=O)CC1 (configuration not stated) | inactive: -12% | 
21 | COc1cccc(-c2cc(C(F)(F)F)n3nc(-c4ccc(C)cc4)cc3n2)c1 | inactive: 6.06% | 
22 | CNS(=O)(=O)c1ccc(NC(=O)c2nc3nc(C)cc(C(F)F)n3n2)cc1 | inactive: 5.4% | 
23 | CCN(c1ccccc1)S(=O)(=O)c1ccc(NC(=O)c2cc(=O)c3c(C)cc(C)cc3o2)cc1 | inactive: -0.905% | 
24 | O=C1CCc2cc(S(=O)(=O)NC(C(=O)Nc3ccc(F)cc3)c3ccccc3)ccc2N1 (configuration not stated) | inactive: -29.7% | 
25 | CCc1ccccc1N1CC(c2nc3ccccc3n2CCCCOc2ccccc2OC)CC1=O (configuration not stated) | inactive: -16.4% | 

Row | SMILES | activity change, negative = cytotoxicity | Potency
26 | CC(C)NC(=O)Cc1csc2nc(-c3ccccc3)cn12 | inactive: -8.56% | 
27 | CCOc1ccc(NS(=O)(=O)c2ccc3[nH]cc(C(=O)N4CCCC4)c(=O)c3c2)cc1 | inactive: 3.71% | 
28 | CC(C)c1cnc2c(c1SCc1ccc([N+](=O)[O-])cc1)c(=O)n(C)c(=O)n2C | inactive: 4.44% | 
29 | O=c1n(Cc2ccccc2)nc2n1-c1ccccc1OC2 | inactive: 5.07% | 
30 | COc1cc2c(cc1OC)C(COc1ccc(F)cc1)N(C(=O)C(C)C)CC2 (configuration not stated) | inactive: 0.0487% | 
31 | Cc1nc2nc(CNC(=O)c3cccc(F)c3)nn2c(C)c1CCC(=O)Nc1ccc(F)cc1 | inactive: 0.72% | 
32 | COc1ccc(OC)c(NC(=O)c2ccc3nc(C(C)C)oc3c2)c1 | inactive: 4.15% | 
33 | Cc1cccc(N2CCN(S(=O)(=O)c3nnc(NC(=O)c4ccc(Cl)cc4)s3)CC2)c1 | inactive: 2.21% | 
34 | O=C1CC(c2nnc(Cc3ccc(F)cc3)o2)CN1c1ccccc1 (configuration not stated) | inactive: -3.14% | 
35 | Cc1cccc(NC(=O)CSc2cn(CC(=O)N3CCC(C)CC3)c3ccccc23)c1C | inactive: -1.08% | 
36 | COc1ccccc1CNC(=O)c1cc(S(=O)(=O)N2CCCCCC2)cn1C | inactive: 12.2% | 
37 | Fc1ccccc1-n1ncc2c1ncn1nc(COc3ccc(Cl)cc3)nc21 | inactive: -6.17% | 
38 | CCc1cccc(NC(=O)c2cc(S(=O)(=O)N3CCCCCC3)cn2C)c1 | inactive: -7.37% | 
39 | CC(C)(C)C(=O)NC1CC(=O)N(c2ccc3c(c2)OCCO3)C1 (configuration not stated) | inactive: 2.35% | 
40 | COc1ccccc1NC(=O)c1sc2nc(C)c(C(=O)Nc3ccc(Cl)cc3)c(-c3ccc(Br)cc3)c2c1N |  | active: 14.1 µM
41 | Cc1c(C2=CCN(S(=O)(=O)c3ccc(Cl)cc3)CC2)c2ccccc2n1CC(=O)N1CCCC1 | inactive: -4.17% | 
42 | CCc1ccc2oc(C(=O)Nc3nc(-c4ccc(F)cc4)ns3)c(C)c2c1 | inactive: 0.196% | 
43 | Cc1cc2c(n1-c1ccc(C(=O)NCCc3ccc(Cl)cc3)cc1)CCC(C)C2 (configuration not stated) | inactive: 0.347% | 
44 | CCC1CCCCN1C(=O)CSc1n[nH]c(-c2ccccc2)n1 (configuration not stated) | inactive: 10.1% | 
45 | COc1ccc(N(Cc2nnc3n2CCCCC3)C(=O)Nc2ccc(Cl)cc2)cc1Cl | inactive: 0.456% | 
46 | CC(=O)Nc1ccc(Nc2nc3ccc(Cl)cc3n3cnnc23)cc1 | inactive: 14.6% | 
47 | CNC(=O)c1ccc(-c2nc(CN3CCc4ccccc43)c(C)o2)cc1 | inactive: 4.84% | 
48 | Cc1cccc(OCC(=O)Nc2ccc(OCc3cc(=O)n4cc(C)ccc4n3)cc2)c1 | inactive: 7.19% | 
49 | Cc1c(Cl)cccc1NC(=O)C(C)n1nc(C)c2c(C)n(-c3ccccc3)nc2c1=O (configuration not stated) | inactive: -1.9% | 
50 | O=C(CC1(O)C(=O)N(CCc2ccccc2)c2ccc(Br)cc21)c1ccccc1 (configuration not stated) | inactive: -15.1% | 

Row | SMILES | activity change, negative = cytotoxicity | Potency
51 | Cc1ccc(-n2c3nc(=O)n(C)c(=O)c-3cc3ccccc32)c(C)c1 | inactive: 5.46% | 
52 | CCC(=O)N1CCc2cc(Br)cc(S(=O)(=O)N3CCCC(C(=O)NCc4ccc(C)cc4)C3)c21 (configuration not stated) | inactive: 2.74% | 
53 | Cc1nc2c3ccccc3nc(NNC(=O)CCC(=O)N3CCN(c4ccc(F)cc4)CC3)n2n1 | inactive: 3.38% | 
54 | O=C(Nc1ccc(OC(F)(F)F)cc1)c1cc(-c2ccc(Cl)cc2)on1 | inactive: 4.89% | 
55 | Cc1cccc(NC(=O)CSc2cn(CC(=O)N3CCOCC3)c3ccccc23)c1C | inactive: 5.06% | 
56 | Cc1ccc2nc(COc3ccccc3NC(=O)Nc3ccc(F)c(Cl)c3)cc(=O)n2c1 | inactive: -13.1% | 
57 | CC(=O)N1CCCc2ccc(NC(=O)c3ccc(OC(C)C)cc3)cc21 | inactive: -3.86% | 
58 | CCc1ccc(NC(=O)Cn2ncn3c(cc4ccccc43)c2=O)cc1 | inactive: -1.11% | 
59 | Cc1ccc2c(=O)cc(C(=O)Nc3c(C)cccc3C)oc2c1 | inactive: -1.24% | 
60 | Cc1cc2c(cc1S(=O)(=O)NCc1ccc(F)cc1)OCCN2C | inactive: 4.65% | 
61 | CCCCN(Cc1cc2cc(C)ccc2[nH]c1=O)C(=O)c1cccc(Cl)c1 | inactive: 6.35% | 
62 | COc1cccc2cc(-c3nc4sc5c(c4c(=O)[nH]3)CCC(C(C)(C)C)C5)c(=O)oc12 (configuration not stated) | inactive: -2.52% | 
63 | COc1ccc(S(=O)(=O)c2c(Nc3cccc(Cl)c3)sc(C(=O)c3ccccc3)c2N)cc1 | inactive: 12.4% | 
64 | COc1ccc(/C=C/c2nc(C#N)c(N3CCCCC3)o2)cc1OC | inactive: 0.844% | 
65 | Cc1ccc(C(=O)c2oc3ccccc3c2NC(=O)COc2ccc(Cl)c(C)c2)cc1 | inactive: 10.8% | 
66 | COc1cccc(NC(=O)Cn2c(=O)oc3cc(S(=O)(=O)N4CCCCC4)ccc32)c1 | inactive: 3.04% | 
67 | COc1cc(C2CC(=O)Nc3cc4c(cc32)OCO4)cc(OC)c1O (configuration not stated) | inactive: 1.93% | 
68 | Cc1c(C)n(Cc2ccc(Cl)cc2)c2ccc(C(=O)N3CCN(c4ccccc4F)CC3)cc12 | inactive: -27.7% | 
69 | COc1cccc(CNC(=O)C2CCCN(c3nnc(-n4c(C)ccc4C)s3)C2)c1OC (configuration not stated) | inactive: 6.39% | 
70 | CSc1nn(Cc2ccc(F)cc2)c(N(C(C)=O)C(C)=O)c1S(=O)(=O)c1ccccc1 | inactive: 5.86% | 
71 | CCc1cccc(CC)c1NC(=O)CN(C)S(=O)(=O)c1ccc2c(c1)n(C)c(=O)c(=O)n2C | inactive: -5.11% | 
72 | O=c1oc2ccccc2cc1-c1cn2cc(Cc3ccc(F)cc3)sc2n1 | inactive: -1.95% | 
73 | CCc1ccc(NC(=O)CC(NCc2cccnc2)C(=O)O)cc1 (configuration not stated) | inactive: -1.3% | 
74 | Cc1ccc(OCC(=O)Nc2ccc(OCc3cc(=O)n4c(C)csc4n3)cc2)cc1C | inactive: -4.28% | 
75 | CCOC(=O)c1c(C)oc2ncnc(Nc3cccc(C(F)(F)F)c3)c12 | inactive: 13.6% | 

Row | SMILES | activity change, negative = cytotoxicity | Potency
76 | CSc1ccc(CCNC(=O)Cn2nc(C)n3c(cc4sccc43)c2=O)cc1 | inactive: -0.777% | 
77 | Cc1nc(-c2ccc(Cl)cc2)sc1CCNC(=O)C(=O)Nc1ccc2c(c1)OCO2 | inactive: 5.15% | 
78 | CCOC(=O)c1cccc(NC(=O)Cn2ncc3c(=O)oc4ccccc4c32)c1 | inactive: -5.08% | 
79 | Cn1c(=O)c2c(nc(SCC(=O)Nc3ccccc3F)n2Cc2ccccc2F)n(C)c1=O | inactive: 1.36% | 
80 | Cc1ccc(Cn2ccnc2SCC(=O)NCc2ccccc2)cc1 | inactive: 2.43% | 
81 | COc1ccccc1N1CCN(C(=O)c2cc3c(=O)n(Cc4cccs4)ccc3nc2C)CC1 | inactive: 5.62% | 
82 | CCOC(=O)N1CCc2c(sc3c2c(=O)n(-c2ccc(CC)cc2)c(=O)n3Cc2ccc(F)cc2Cl)C1 | inactive: 16.6% | 
83 | COc1ccc(N2CCN(CCCNC(=O)c3c(C)nn(-c4ccc(F)cc4)c3-n3cccc3)CC2)cc1 | inactive: -9.66% | 
84 | CCc1ccc(NC(=O)Cn2nnc(-c3ccccc3N)n2)cc1 | inactive: 0.7% | 
85 | CC(C)C(=O)Nc1nnc(S(=O)(=O)N2CCc3ccccc32)s1 | inactive: 9.68% | 
86 | Cc1cccc(N2CCN(c3ccc4cc(S(=O)(=O)N5CCC(C)CC5)ccc4n3)CC2)c1C | inactive: 4.19% | 
87 | COc1ccccc1NC(=O)N1CCN(c2ccc3nnc(-c4ccc(F)cc4)n3n2)CC1 | inactive: 4.08% | 
88 | CCOc1ccc(NC(=O)Cn2nc(Cc3cccnc3)c3ccccc3c2=O)cc1 | inactive: -1.08% | 
89 | Cc1ccc(-n2ncc3c(NCCCn4ccnc4)ncnc32)cc1C | inactive: -19.3% | 
90 | CCOC(=O)c1c(NC(=O)Cc2coc3ccc(CC)cc23)sc2c1CCC2 | inactive: 0.728% | 
91 | CCOc1ccc2nc(N3CCCC(C(=O)NCCc4ccc(Cl)cc4)C3)sc2c1 (configuration not stated) | inactive: -8.49% | 
92 | CCOC(=O)CSc1nc2ccccc2c(=O)n1-c1ccc(C(=O)NCCOC)cc1 | inactive: 7.08% | 
93 | O=C(Nc1ccccc1C(F)(F)F)N1CCOc2ccc(Cl)cc21 | inactive: 3.95% | 
94 | Cc1ccc(N2C(=O)CS(=O)(=O)C23C(=O)Nc2ccccc23)cc1C (configuration not stated) | inactive: 10.9% | 
95 | Cc1ccccc1Cn1ccn(-c2ccc(F)c(F)c2)c(=O)c1=O | inactive: 4.51% | 
96 | CN(Cc1nc(-c2ccc(Cl)cc2)no1)S(=O)(=O)c1ccccc1 | inactive: -12.3% | 
97 | CC(C)c1ccc(C2CC(=O)Nc3cc4c(cc32)OCCO4)cc1 (configuration not stated) | inactive: -2.01% | 
